In all, about 310,000 compounds went through this assay and about 18,000 (5.8%) were called active. The inconclusive results got no clear call from the source; some entries with a clear call stand among them for comparison. Calls come from the whole dose curve; as a rule, active = well fitted inhibition curve with a large enough effect; inconclusive = small, poorly fitted or top-dose-only effect, or another doubt; inactive = no such curve, though single readings can be large or run the other way. Potencies of inconclusive entries are left out as doubtful fits.
Assay: Primary qHTS for delayed death inhibitors of the malarial parasite plastid, 48 hour incubation
Conditions: P. falciparum luciferase growth in erythrocytes; series mostly up to 28.7 µM
Procedure, shortened: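 Growth was read as firefly luciferase luminescence after a 48 h, 37 C, 5% CO2 exposure of compounds to reporter-bearing P. falciparum cultures (0.1% parasitemia, 2% hematocrit final) in Albumax-supplemented RPMI 1640.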
Potency is the fitted concentration of half-maximal effect; tags give direction and shape of the fitted curve.

| SMILES | Potency |
| --- | --- |
| CCCCNC(=O)CC(NS(=O)(=O)c1ccc(C)cc1)c1ccco1 (stereo not drawn) | inconclusive [inhibitor, partial curve, poor fit] |
| Cn1cccc1CC(=O)N/N=C/c1ccc(Cl)cc1 | inactive |
| Cc1csc(NC(=O)C2CCN(C(=O)CSc3nnc(C)n3Cc3ccccc3)CC2)n1 | inconclusive [inhibitor, partial curve, poor fit] |
| Cc1nn2c([nH]c(=O)c3ccccc32)c1C=O | inconclusive [inhibitor, partial curve] |
| CC(C)N(c1ccccc1)c1ccc(NC(=O)CCl)cc1 | active: 10.4 µM |
| CCc1cc2ccc(OC)cc2nc1SCC(=O)NNC(=O)c1ccco1 | inactive |
| Cc1csc(CNc2ncnc3ccc(-c4ccco4)cc23)c1 | inconclusive [inhibitor, single point] |
| CCN(CC)CCNC(=O)c1ccc(NC(=O)c2cccc(S(=O)(=O)N3c4ccccc4CC3C)c2)cc1 (stereo not drawn) | inactive |
| CCOc1ccccc1/C=N/NC(=O)C[n+]1ccccc1 | inconclusive [inhibitor, single point] |
| O=C(Nc1ccc2c(c1)OCO2)C1CCN(c2ccc(S(=O)(=O)N3CCOCC3)cc2)CC1 | inconclusive [inhibitor, full curve] |
| COc1nccnc1NS(=O)(=O)c1ccc(NCc2cc(Br)ccc2O)cc1 | inconclusive [inhibitor, partial curve, poor fit] |
| Cc1ncc(N=Nc2ccc(F)cc2)c(-c2ccc(Cl)cc2)n1 | inconclusive [inhibitor, single point] |
| CC1CCCC(NC(=O)C2CCN(S(=O)(=O)N3CCCCCC3)CC2)C1C (stereo not drawn) | inconclusive [inhibitor, single point] |
| CC1(C)Cc2c(cnn2-c2ccc(F)cc2)C(NC(=O)c2ccc(=O)oc2)C1 (stereo not drawn) | inconclusive [inhibitor, partial curve] |
| CC(=O)c1cccc(CN2CCCC(CCC(=O)NCc3ccc(C)o3)C2)c1 (stereo not drawn) | inconclusive [inhibitor, single point] |
| O=C(c1ccc(COc2ccccc2Br)cc1)N1CCCCCC1 | inconclusive [inhibitor, single point] |
| COc1ccc(C(=O)COC(=O)c2cccnc2Cl)c(OC)c1 | inactive |
| COc1ccccc1NC(=O)c1ccc(NC(=O)CNC(=O)c2ccc(OC)c(OC)c2)cc1 | inconclusive [inhibitor, single point] |
| O=C(c1ccc(Cl)cc1)c1cnc(-c2ccc(Cl)cc2)s1 | inactive |
| COc1ccc(N2CCN(C(=O)COC(=O)c3ccc(C)o3)CC2)cc1 | inconclusive [inhibitor, single point] |
| Cc1cc(C)c(C#N)c(SCc2ccccc2)n1 | inconclusive [inhibitor, single point] |
| CC1(C)CC(=O)/C(=C\c2cccc([N+](=O)[O-])c2)C(C)(C)N1 | inconclusive [inhibitor, single point] |

| SMILES | Potency |
| --- | --- |
| COCc1nc2ccccc2n1CCCOc1ccccc1 | inconclusive [inhibitor, partial curve, poor fit] |
| Cc1ccc(NC(=S)NC(NC(=O)c2ccco2)C(Cl)(Cl)Cl)cc1 (stereo not drawn) | active: 4.65 µM |
| Cc1cc(C)n2nc(SCCCC(=O)c3ccccc3)nc2n1 | inconclusive [inhibitor, single point] |
| Cc1ccc(Nc2nnc(SCC(=O)N(C)C3CCS(=O)(=O)C3)s2)cc1 (stereo not drawn) | inconclusive [inhibitor, single point] |
| O=C(NC1C(=O)NNC1c1ccccc1)c1ccccc1 (stereo not drawn) | inactive |
| Cc1cccc(N2CCN(C(=O)CCCn3c(=O)[nH]c4ccsc4c3=O)CC2C)c1 (stereo not drawn) | inconclusive [inhibitor, partial curve] |
| Cc1ccc(C)c(N2C(=O)CC(Cc3ccccc3)C2=O)c1 (stereo not drawn) | inactive |
| NC(=O)c1ccsc1NC(=O)COC(=O)Cc1ccccc1Cl | inconclusive [inhibitor, single point] |
| CCCNC(=O)c1ccc2c(=O)c(O)c(-c3cccc(Br)c3)[nH]c2c1 | inconclusive [inhibitor, single point] |
| Cc1cccc(OCC(=O)Nc2cc(C)c(C)cc2O)c1 | active: 3.7 µM |
| Cc1ccc(C(C(=O)NCc2ccc(F)cc2)N(CCCO)C(=O)C2COc3ccccc3O2)o1 (stereo not drawn) | inconclusive [inhibitor, partial curve, poor fit] |
| CC(=O)Nc1ccc(Nc2nc(C)nc3c2oc2ccccc23)cc1 | inconclusive [inhibitor, single point] |
| CC(NC(=O)COC(=O)c1cc([N+](=O)[O-])ccc1N1CCOCC1)c1ccc(F)cc1 (stereo not drawn) | inconclusive [inhibitor, single point] |
| CCCCCCCCOC(=O)c1nc(Cl)c(Cl)c(N)c1Cl | inconclusive [inhibitor, single point] |
| COc1cc2c(c(OC)c1OC)CCc1cnoc1-2 | inconclusive [inhibitor, single point] |
| CC1CCN(CCc2nc3cc(NC(=O)COc4ccc(Cl)cc4)ccc3n2C)CC1 | inconclusive [inhibitor, full curve] |
| CCOc1ccc(S(=O)(=O)/N=C(/Nc2ccc(OC)cc2)c2ccccc2)cc1 | inconclusive [inhibitor, partial curve, poor fit] |
| Cc1cc(NC(=O)CSc2nc3cc(C)c(C)cc3cc2C)no1 | inactive |
| Cc1cc2cc(C)c(NCCNC(=O)c3cccs3)nc2cc1C | inconclusive [inhibitor, single point] |
| CC(=O)Nc1ccc(C(=O)N/N=C/c2ccccc2OC(=O)c2ccc(Cl)cc2)cc1 | inconclusive [inhibitor, single point] |
| O=C(CN1CCN(Cc2ccccc2)CC1)c1ccc(Br)cc1 | inconclusive [inhibitor, partial curve, poor fit] |

Reference: PubChem BioAssay AID504832 (National Center for Advancing Translational Sciences (NCATS), 2011)
